The record followed here is publication PMC9079172.

The chains behind the UniProt entries cited, without tags or fusion partners.
UniProt P46379: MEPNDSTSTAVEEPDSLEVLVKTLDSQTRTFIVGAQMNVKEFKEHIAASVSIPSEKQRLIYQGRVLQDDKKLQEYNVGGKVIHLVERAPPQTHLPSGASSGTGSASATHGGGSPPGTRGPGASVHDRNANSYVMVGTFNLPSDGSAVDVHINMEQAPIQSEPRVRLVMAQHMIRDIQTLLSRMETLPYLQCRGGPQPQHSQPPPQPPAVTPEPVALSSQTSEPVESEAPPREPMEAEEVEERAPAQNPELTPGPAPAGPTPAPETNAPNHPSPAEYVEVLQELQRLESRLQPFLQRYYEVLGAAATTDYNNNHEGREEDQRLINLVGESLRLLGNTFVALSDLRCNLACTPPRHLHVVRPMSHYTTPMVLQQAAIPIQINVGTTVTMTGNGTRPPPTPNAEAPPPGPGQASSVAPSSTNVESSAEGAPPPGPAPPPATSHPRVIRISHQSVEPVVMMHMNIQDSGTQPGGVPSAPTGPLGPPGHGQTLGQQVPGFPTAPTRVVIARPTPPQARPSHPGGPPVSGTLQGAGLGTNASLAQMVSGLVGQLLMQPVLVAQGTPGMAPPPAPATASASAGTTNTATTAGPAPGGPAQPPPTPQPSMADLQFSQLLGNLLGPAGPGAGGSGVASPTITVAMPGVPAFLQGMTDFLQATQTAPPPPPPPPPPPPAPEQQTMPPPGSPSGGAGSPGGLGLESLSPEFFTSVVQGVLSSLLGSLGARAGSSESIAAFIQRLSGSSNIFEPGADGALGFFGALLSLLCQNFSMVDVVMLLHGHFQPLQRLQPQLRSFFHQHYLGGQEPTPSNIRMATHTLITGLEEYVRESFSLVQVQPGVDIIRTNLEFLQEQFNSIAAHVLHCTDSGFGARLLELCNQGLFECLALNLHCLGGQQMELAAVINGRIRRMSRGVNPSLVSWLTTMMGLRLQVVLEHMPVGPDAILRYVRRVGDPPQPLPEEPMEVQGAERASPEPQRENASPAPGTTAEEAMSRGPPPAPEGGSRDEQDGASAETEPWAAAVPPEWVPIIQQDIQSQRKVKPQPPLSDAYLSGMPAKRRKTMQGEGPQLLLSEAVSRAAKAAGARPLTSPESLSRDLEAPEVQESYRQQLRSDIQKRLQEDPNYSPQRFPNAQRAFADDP
UniProt Q7L5D6: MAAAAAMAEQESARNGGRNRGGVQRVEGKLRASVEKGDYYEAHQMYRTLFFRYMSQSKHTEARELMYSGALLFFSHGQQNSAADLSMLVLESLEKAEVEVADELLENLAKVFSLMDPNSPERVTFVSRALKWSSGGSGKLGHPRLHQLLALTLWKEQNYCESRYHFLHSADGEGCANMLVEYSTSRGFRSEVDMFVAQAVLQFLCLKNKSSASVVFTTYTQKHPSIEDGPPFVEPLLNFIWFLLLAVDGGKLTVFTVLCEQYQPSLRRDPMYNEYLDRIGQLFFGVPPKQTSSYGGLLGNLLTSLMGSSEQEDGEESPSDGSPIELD

The target in experiment [1] is TDP43^219 (Val^219-TDP43^f), C-terminal fragment of human TDP43, amino acids 219 - 414, bearing N-terminal Val and a C-terminal FLAG tag (human) (UniProt Q13148). Briefly: co-IP; anti-TDP43 IP from the soluble fraction of BAG6-KO HEK293T cells co-expressing FLAG-tagged TDP43 fragment with exogenous BAG6 (and TRC35, UBL4a, RNF126); anti-FLAG immunoblot. (In general: Immunoblotting shows a protein as a band on a membrane.)

Experiment [2] addresses BAG6, wild type, FLAG-tagged, exogenously overexpressed (pRK5-FLAG-Bag6) (UniProt P46379). Briefly: co-IP; anti-BAG6 IP from soluble fractions of HEK293T cells overexpressing the fragments and BAG6 or BAG6ΔUBL; blots with anti-TDP43, anti-FLAG or anti-Myc; lysis/wash buffer 50 mM HEPES pH 7.5, 10% glycerol, 0.05% NP-40, 150 mM NaCl, 4°C.
The target in experiment [3] is TDP43^247 (Val^247-TDP43^f), C-terminal fragment of human TDP43, amino acids 247 - 414, bearing N-terminal Val and a C-terminal FLAG tag (human) (UniProt Q13148). Briefly: co-IP; anti-FLAG IP of C-terminally FLAG-tagged TDP43 fragments (or DHFR-Ub) from detergent-soluble and -insoluble (urea solubilized) fractions of HEK293T cells treated with MG132; endogenous BAG6 detected by anti-BAG6 blot; lysis/wash buffer 50 mM HEPES pH 7.5, 10% glycerol, 0.05% NP-40, 150 mM NaCl, 4°C.

Experiment [4] addresses TDP43^219 (Val^219-TDP43^f), C-terminal fragment of human TDP43, amino acids 219 - 414, bearing N-terminal Val and a C-terminal FLAG tag (human) (UniProt Q13148). The experiment is described as above.
For experiment [5], the target named is TDP43^247 (Val^247-TDP43^f), C-terminal fragment of human TDP43, amino acids 247 - 414, bearing N-terminal Val and a C-terminal FLAG tag (human) (UniProt Q13148). Briefly: co-IP; anti-TDP43 IP from the soluble fraction of BAG6-KO HEK293T cells co-expressing FLAG-tagged TDP43 fragment with exogenous BAG6 (and TRC35, UBL4a, RNF126); anti-FLAG immunoblot.

Results are given in words; binding and its absence hold for the method and conditions named. In cells and extracts the contact can be indirect. Some binding calls cover weakened binding; strength is not graded here.

Regarding “transmembrane recognition complex 35 (TRC35), myc-FLAG-tagged (from UniProt Q7L5D6 1-327)”, the binding result in experiment [1] was “binds”.

For the substance “TDP43^247 (Val^247-TDP43^f), C-terminal fragment of human TDP43, amino acids 247 - 414, bearing N-terminal Val and a C-terminal FLAG tag (from UniProt Q13148 247-414) (domain or fragment)”, the binding result in experiment [2] is reported as “binds”.

On to “TDP43^219 (Val^219-TDP43^f), C-terminal fragment of human TDP43, amino acids 219 - 414, bearing N-terminal Val and a C-terminal FLAG tag (from UniProt Q13148 219-414) (domain or fragment)”, for which the binding entry in experiment [2] is “binds”.

In the case of “Bcl-2 associated athanogene 6 (BAG6), endogenous (from UniProt P46379 1-1132)”, the binding result in experiment [3] and in experiment [4] was “binds” throughout.

On to “BAG6, wild type, FLAG-tagged, exogenously overexpressed (pRK5-FLAG-Bag6) (from UniProt P46379 1-1132)”, for which the binding result in experiment [5] and in experiment [1] was “binds” each time.

As for “TAR DNA-binding protein 43 (TDP43), endogenous, full-length (from UniProt Q13148 1-414)”, the binding entry in experiment [2] was “no binding”.
